Measurements published in PubChem BioAssay AID1745845 (National Center for Advancing Translational Sciences (NCATS), 2022).
About 2,600 (0.72%) of roughly 360,000 compounds were called active. The shares of active, inactive and inconclusive entries below differ from those in the screen. Calls come from the whole dose curve; as a rule, active = well fitted inhibition curve with a large enough effect; inconclusive = small, poorly fitted or top-dose-only effect; inactive = no such curve, though single readings can be large or run the other way. Where the call is inconclusive, the potency comes from a doubtful curve fit.

Assay: Primary qHTS for Inhibitors of ATXN expression; note: nearly all actives have a fitted effect of over 55% in size
Details: HEK-293 ATXN2-luciferase reporter, luminescence, 24 h; activity change, negative = inhibition: at 57 µM (top of the series)
Summary of the method: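 qHTS (up to 57 uM final) was run with 24 h compound exposure of reporter cells at 37 °C. Each well was multiplexed: SteadyGlo luminescence measured ATXN2-luciferase expression after a fluorogenic Gly-Phe-AFC viability readout (25 uM final).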
% is set by controls: 0 for no effect and ±100 for the full control effect; potency is the fitted concentration of half-maximal effect; tags give direction and shape of the fitted curve.

Q: Which Potency does the source give for `c1ccc2c(N3CCNCC3)nsc2c1` here?
A: inconclusive: 15 µM [inhibitor, partial curve, poor fit]

Q: With `Oc1ccccc1-[n+]1c(-c2ccccc2)cc(-c2ccccc2)cc1-c1ccccc1` as the molecule, how does the Potency read?
A: inconclusive: 25.1 µM [inhibitor, partial curve]

Q: Which “activity change, negative = inhibition” value does the source give for `COc1ccc(OCC(=O)Nc2ccc(Cl)cc2C(=O)c2ccccc2)cc1` here?
A: inactive: -8.04%

Q: For `Cc1cccc(C2=NCC(=O)N(CC(=O)NCc3ccco3)c3sc4c(c32)CCCC4)c1`, which Potency is on record?
A: inconclusive: 39.8 µM [inhibitor, single point]

Q: Which Potency does the source give for `Cc1ccc(NC(=O)N(Cc2ccc3c(c2)OCO3)C2CCN(Cc3ccccc3)CC2)cc1C` here?
A: inconclusive: 22.4 µM [inhibitor, partial curve, poor fit]

Q: Which Potency does the source give for `Cc1nnc2n1-c1sc(CCc3ccc(CC(C)C)cc3)cc1C(c1ccccc1Cl)=NC2C` (centres undefined) here?
A: active: 35.5 µM

Q: Which Potency does the source give for `COC(=O)c1nc(-c2ccc3c(n2)C(=O)C(N)=C(OC)C3=O)c(N)c(-c2ccc(OC)c(OC)c2O)c1C` here?
A: inconclusive: 22.4 µM [inhibitor, partial curve, poor fit]

Q: With `CO/C=C(/C(=O)OC)c1ccccc1Oc1cc(Oc2ccccc2C#N)ncn1` as the molecule, how does the Potency read?
A: inconclusive: 35.5 µM [inhibitor, partial curve]

Q: Which Potency does the source give for `CCOc1cccc(=NC2CCCCC2)c2c(C)[nH]c(C)c12` here?
A: inconclusive: 25.1 µM [inhibitor, partial curve, poor fit]

Q: With `CCn1nc(/C=C/c2ccccc2)nc2c(=O)n(C)c(=O)nc1-2` as the molecule, how does the Potency read?
A: inconclusive: 7.52 µM [inhibitor, partial curve, poor fit]

Q: For `C/C(=N\N1CCCCCC1)c1c(O)n(-c2ccc(C)cc2)c(=O)[nH]c1=O`, which “activity change, negative = inhibition” value is on record?
A: inactive: -7.78%

Q: With `O=C1NC(=O)N(c2ccccc2)C(=O)/C1=C/c1ccc(Sc2ccccc2)o1` as the molecule, how does the Potency read?
A: active: 25.1 µM

Q: For `Fc1ccc(Cn2nnnc2C(c2ccc(F)cc2)N2CC=C(c3ccc(F)cc3)CC2)cc1` (centres undefined), which “activity change, negative = inhibition” value is on record?
A: inactive: -22.3%

Q: For `CC(CC(C)(C)N1CC1)=NO`, which Potency is on record?
A: inconclusive: 39.8 µM [inhibitor, single point]

Q: With `CCCCCOc1ccc(C)cc1CN(CCCl)CCCl` as the molecule, how does the Potency read?
A: inconclusive: 39.8 µM [inhibitor, single point]

Q: With `C[N+]1(CCF)[C@@H]2CC[C@H]1CC(OC(=O)C(O)(c1ccccc1)c1ccccc1)C2` (some centres undefined) as the molecule, how does the “activity change, negative = inhibition” value read?
A: inactive: 3.93%

Q: With `Cc1ccc(N2C(=O)NC(=O)/C(=C\C=C\c3ccco3)C2=O)cc1C` as the molecule, how does the Potency read?
A: active: 7.94 µM

Q: With `CCOC(=O)[C@]12Cc3cc(Cl)ccc3[C@H]1N(Cc1ccccc1)C(=O)c1cc(OC)ccc12` as the molecule, how does the Potency read?
A: active: 17.8 µM

Q: For `NC1(c2ccccc2)CCCCC1`, which Potency is on record?
A: inconclusive: 39.8 µM [inhibitor, partial curve]

Q: For `Cc1cc(C)cc(N2C(=O)NC(=O)/C(=C\c3cccn3-c3ccccc3)C2=O)c1`, which Potency is on record?
A: inconclusive: 35.5 µM [inhibitor, single point]

Q: With `O=C1c2ccccc2C(=O)C1C(=O)C(c1ccccc1)c1ccccc1` as the molecule, how does the Potency read?
A: inconclusive: 39.8 µM [inhibitor, single point]

Q: Which Potency does the source give for `COc1ccc(-c2nc(CN3C(=O)CN=C(c4ccccc4)c4ccccc43)c(C)o2)cc1` here?
A: inconclusive: 31.6 µM [inhibitor, single point]

Q: Which Potency does the source give for `NS(=O)(=O)c1ccc(N=Cc2c(O)n(C3CCCCC3)c(=O)n(C3CCCCC3)c2=O)cc1` here?
A: inconclusive: 39.8 µM [inhibitor, single point]

Q: For `CCOC(=O)[C@]12Cc3c(cc(OC)c(OC)c3OC)[C@H]1N(CCC(=O)OC)C(=O)c1ccccc12`, which Potency is on record?
A: inconclusive: 39.8 µM [inhibitor, single point]

Q: Which Potency does the source give for `COc1cccc(C(c2nnnn2-c2ccc3c(c2)OCCO3)N2CCC(n3c(=O)[nH]c4ccccc43)CC2)c1OC` (centres undefined) here?
A: active: 15.8 µM

Q: Which Potency does the source give for `NCCNc1ccc([N+](=O)[O-])c2cccnc12` here?
A: inconclusive: 15 µM [inhibitor, partial curve, poor fit]

Q: For `NC(Cc1ccc(Cl)cc1)c1csc(Nc2ccccn2)n1` (centres undefined), which Potency is on record?
A: active: 22.4 µM

Q: With `O=C1NC(=O)C(=Cc2ccc(Sc3ccccc3)o2)C(=O)N1` as the molecule, how does the Potency read?
A: inconclusive: 39.8 µM [inhibitor, single point]

Q: Which Potency does the source give for `COC(=O)C1=C(c2ccc(-c3ccccc3)c(F)c2)C[C@@H]2CC[C@H]1N2C(=O)NCCOc1ccccc1Cl` here?
A: inconclusive: 22.4 µM [inhibitor, partial curve, poor fit]

Q: Which Potency does the source give for `CCN1C(=O)/C(=C/c2ccc(N(CC)CC)cc2OC)C(=O)NC1=S` here?
A: inconclusive: 11.2 µM [inhibitor, partial curve]

Q: With `COc1cc(Cn2c(N)c(C(=O)NCc3ccco3)c3nc4ccccc4nc32)cc(OC)c1OC` as the molecule, how does the Potency read?
A: inconclusive: 35.5 µM [inhibitor, partial curve, poor fit]

Q: For `O=C1NC(=O)C(=Cc2ccc(-c3ccc(Cl)cc3)o2)C(=O)N1`, which Potency is on record?
A: inconclusive: 35.5 µM [inhibitor, single point]

Q: Which “activity change, negative = inhibition” value does the source give for `CC(Cc1ccccc1Sc1ccccc1O)N(C)C` (centres undefined) here?
A: inactive: -21.7%

Q: With `Clc1ccc(CNCCc2ccc3c(c2)OCO3)cc1` as the molecule, how does the Potency read?
A: inconclusive: 8.91 µM [inhibitor, single point]

Q: Which “activity change, negative = inhibition” value does the source give for `Cc1cc(OC(=O)N(C)C)nc(-c2ccc(C)c(Cl)c2)n1` here?
A: inactive: -7.19%

Q: With `C=CCN1CCc2cccc3c2[C@H]1Cc1ccc(O)c(O)c1-3` as the molecule, how does the Potency read?
A: inconclusive: 31.6 µM [inhibitor, single point]

Q: For `COC1/C=C/C=C(\C)Cc2cc(O)c(Cl)c(c2)N(C)C(=O)CC(OC(=O)C(C)C)C2(C)OC2C(C)C2CC1(O)NC(=O)O2` (centres undefined), which Potency is on record?
A: inconclusive: 39.8 µM [inhibitor, single point]

Q: Which Potency does the source give for `O=C(NCC1=C(c2ccc3ccccc3c2)C[C@@H]2CC[C@H]1N2Cc1ccco1)c1ccc([N+](=O)[O-])cc1` here?
A: inconclusive: 28.2 µM [inhibitor, partial curve]

Q: Which Potency does the source give for `CC1CCOC(=O)C=CC=CC(=O)OC2CC3OC4C5OC5(C)C(O)CC4(COC(=O)C1O)C2(C)C31CO1` (centres undefined) here?
A: active: 0.267 µM

Q: For `COc1cccc(C(=O)CCN[C@@H](C)[C@H](O)c2ccccc2)c1`, which Potency is on record?
A: inconclusive: 35.5 µM [inhibitor, partial curve, poor fit]

Q: With `CN(C)C1(CNC(=O)Nc2ccc(Cl)c(Cl)c2)CCCCC1` as the molecule, how does the Potency read?
A: inconclusive: 10 µM [inhibitor, partial curve]

Q: With `Cc1cc(C)cc(N2C(=O)NC(=O)/C(=C\c3cccn3-c3ccc(Cl)cc3)C2=O)c1` as the molecule, how does the Potency read?
A: inconclusive: 31.6 µM [inhibitor, single point]

Q: With `O=c1[nH]c2ccccc2n1C1CCN(C(c2ccccc2)c2nnnn2-c2ccc3c(c2)OCCO3)CC1` (centres undefined) as the molecule, how does the Potency read?
A: inconclusive: 17.8 µM [inhibitor, partial curve, poor fit]

Q: With `c1cc2c(cc1[C@H]1OC[C@H]3[C@H]1CO[C@H]3c1ccc3c(c1)OCO3)OCO2` as the molecule, how does the “activity change, negative = inhibition” value read?
A: inactive: 3.91%

Q: Which Potency does the source give for `Cc1c(NS(=O)(=O)c2ccccc2)ccc([N+](=O)[O-])c1Cl` here?
A: inconclusive: 39.8 µM [inhibitor, single point]

Q: Which Potency does the source give for `Nc1c(C(=O)NCCCc2ccccc2)c2nc3ccccc3nc2n1Cc1cccs1` here?
A: inconclusive: 39.8 µM [inhibitor, partial curve, poor fit]

Q: For `O=C(O)CCCc1ccc(N(CCCl)CCCl)cc1`, which Potency is on record?
A: inconclusive: 21.7 µM [inhibitor, partial curve]

Q: With `CC1=C2C[C@@H]3[C@@H](CC=C4C[C@@H](O)CC[C@@]43C)[C@@H]2CC[C@]12O[C@H]1C[C@H](C)CN[C@H]1[C@H]2C` as the molecule, how does the Potency read?
A: inconclusive: 0.485 µM [inhibitor, partial curve, poor fit]

Q: With `COc1ccc(C(C)=O)cc1CN1CC=C(c2ccccc2)CC1` as the molecule, how does the “activity change, negative = inhibition” value read?
A: inactive: -4.98%
